In the supplement of paper PMC4604168 (melanoma cell lines):
The other results are listed elsewhere or left out. Most values come without repeats; read them as rough.

Assays:
Assay in all cases: cell count relative to DMSO control; melanoma cells; higher = more viable cells
Conditions in all cases: library dose: low library concentration; 72 h
[1] = test system: MZ2-MEL
[2] = test system: MeWo
[3] = test system: RPMI7951
[4] = test system: RVH-421
[5] = test system: SkMel28
[6] = test system: SkMel2
[7] = test system: SkMel30
[8] = test system: SkMel5
[9] = test system: UACC257
[10] = test system: UACC62
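Further: cell number obtained by counting DAPI-stained nuclei in high-throughput microscope images with image analysis software, screen run in 1,536-well plates.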

| SMILES | cell count [1] | cell count [2] | cell count [3] | cell count [4] | cell count [5] | cell count [6] | cell count [7] | cell count [8] | cell count [9] | cell count [10] |
| --- | --- | --- | --- | --- | --- | --- | --- | --- | --- | --- |
| CC(C)C[C@H](NC(=O)[C@H](Cc1ccccc1)NC(=O)c1cnccn1)B(O)O [Bortezomib] + COC(=O)c1sccc1S(=O)(=O)Nc1ccc(Nc2ccccc2)cc1OC [GSK0660] (first compound 0.001 µM, partner dose 1 µM) | 78.4% | 71.1% | 57.5% | 53.8% | 85.6% | 98% | 79.5% | 99.7% | 56.9% | 68.9% |
| Cn1c(=O)n(-c2ccc(C(C)(C)C#N)cc2)c2c3cc(-c4cnc5ccccc5c4)ccc3ncc21 + Cc1cc(N2CCOCC2)cc2[nH]c(-c3c(NC[C@@H](O)c4cccc(Cl)c4)cc[nH]c3=O)nc12 [BMS536924] (first compound 0.004 µM, partner dose 0.2 µM) | 93.9% | 75.6% | 91.2% | 87% | 77.9% | 89.8% | 69.3% | 110% | 95.6% | 85.4% |
| Cc1cn(-c2cc(NC(=O)c3ccc(C)c(Nc4nccc(-c5cccnc5)n4)c3)cc(C(F)(F)F)c2)cn1 [nilotinib] + c1cc(-c2cnn3cc(-c4ccc(OCCN5CCCCC5)cc4)cnc23)ccn1 [Dorsomorphin] (first compound 0.2 µM, partner dose 0.4 µM) | 94.2% | 97.6% | 91.5% | 96.1% | 95.2% | 113% | 98.7% | 84.2% | 82.1% | 110% |
| COc1ccc(C2=N[C@@H](c3ccc(Cl)cc3)[C@@H](c3ccc(Cl)cc3)N2C(=O)N2CCNC(=O)C2)c(OC(C)C)c1 [Nutlin-3] + C=CCNC1=C2C[C@@H](C)C[C@H](OC)[C@H](O)[C@@H](C)/C=C(\C)[C@H](OC(N)=O)[C@@H](OC)/C=C\C=C(/C)C(=O)NC(=CC1=O)C2=O [Tanespimycin] (first compound 0.1 µM, partner dose 0.002 µM) | 104% | 102% | 100% | 86.6% | 96.5% | 106% | 84.8% | – | – | 88.8% |
| Cn1c(=O)n(-c2ccc(C(C)(C)C#N)cc2)c2c3cc(-c4cnc5ccccc5c4)ccc3ncc21 + COc1ccc(COc2ccc(Cc3cnc(N)nc3N)cc2OC)cc1 [GW2580] (first compound 0.004 µM, partner dose 1 µM) | 101% | 95.5% | 92% | 85.7% | 82.2% | 98.7% | 88.2% | 102% | 74.3% | 94.2% |
| COc1ccc(C2=N[C@@H](c3ccc(Cl)cc3)[C@@H](c3ccc(Cl)cc3)N2C(=O)N2CCNC(=O)C2)c(OC(C)C)c1 [Nutlin-3] + Nc1ccn([C@@H]2O[C@H](CO)[C@@H](O)C2(F)F)c(=O)n1 [gemcitabine] (first compound 0.1 µM, partner dose 0.0004 µM) | 95.7% | 104% | 89% | 82.6% | 84.2% | 96% | 92.5% | – | – | 82.2% |
| Cn1c(=O)n(-c2ccc(C(C)(C)C#N)cc2)c2c3cc(-c4cnc5ccccc5c4)ccc3ncc21 + O=C(O)C(=O)Nc1sc2c(c1C(=O)O)CCNC2 [TCS401] (first compound 0.004 µM, partner dose 1.66667 µM) | 109% | 89.2% | 105% | 85.1% | 84.6% | 90.1% | 94.6% | 107% | 95.2% | 80.6% |
| Cc1cn(-c2cc(NC(=O)c3ccc(C)c(Nc4nccc(-c5cccnc5)n4)c3)cc(C(F)(F)F)c2)cn1 [nilotinib] + CCCCCCCCCCCC1=C(O)C(=O)C=C(O)C1=O [Embelin] (first compound 0.2 µM, partner dose 1.2 µM) | 95.4% | 110% | 103% | 119% | 98.8% | 93.1% | 97.6% | 97.2% | 122% | 112% |
| COc1ccc(C2=N[C@@H](c3ccc(Cl)cc3)[C@@H](c3ccc(Cl)cc3)N2C(=O)N2CCNC(=O)C2)c(OC(C)C)c1 [Nutlin-3] + CCc1ccc(CCOc2ccc(CC3SC(=O)NC3=O)cc2)nc1 [pioglitazone] (first compound 0.1 µM, partner dose 2 µM) | 97.4% | 94% | 110% | 101% | 84.9% | 102% | 90.2% | 84.2% | 98.7% | 73.2% |
| Cn1c(=O)n(-c2ccc(C(C)(C)C#N)cc2)c2c3cc(-c4cnc5ccccc5c4)ccc3ncc21 + Nc1ccn([C@@H]2O[C@H](CO)[C@@H](O)C2(F)F)c(=O)n1 [gemcitabine] (first compound 0.004 µM, partner dose 0.0004 µM) | 95.9% | 80.2% | 84.8% | 87.7% | 81.2% | 93.4% | 80.9% | – | – | 80.1% |
| Cn1c(=O)n(-c2ccc(C(C)(C)C#N)cc2)c2c3cc(-c4cnc5ccccc5c4)ccc3ncc21 + OCCn1cc(-c2cnc3nnn(Cc4ccc5ncccc5c4)c3n2)cn1 [PF04217903] (first compound 0.004 µM, partner dose 1 µM) | 108% | 90.6% | 85.6% | 117% | 82.6% | 97.2% | 87.4% | 114% | 88.1% | 90.6% |
| CC(C)C[C@H](NC(=O)[C@H](Cc1ccccc1)NC(=O)c1cnccn1)B(O)O [Bortezomib] + NCC(=O)Nc1ccc(-n2nc(C(F)(F)F)cc2-c2ccc3c(ccc4ccccc43)c2)cc1 [OSU03012] (first compound 0.001 µM, partner dose 1 µM) | 89% | 58.9% | 106% | 113% | 69.9% | 59.5% | 54.5% | 91.4% | 79.4% | 94.8% |
| Cc1cn(-c2cc(NC(=O)c3ccc(C)c(Nc4nccc(-c5cccnc5)n4)c3)cc(C(F)(F)F)c2)cn1 [nilotinib] + COc1ccc(COc2ccc(Cc3cnc(N)nc3N)cc2OC)cc1 [GW2580] (first compound 0.2 µM, partner dose 1 µM) | 92.1% | 101% | 98.8% | 119% | 111% | 92.3% | 85.6% | 98.6% | 103% | 105% |
| Cn1c(=O)n(-c2ccc(C(C)(C)C#N)cc2)c2c3cc(-c4cnc5ccccc5c4)ccc3ncc21 + Cc1ccc(NC(=O)c2cccc(N(C)C)c2)cc1NC(=O)c1ccc(O)cc1 [ZM336372] (first compound 0.004 µM, partner dose 2 µM) | 85.4% | 82.2% | 98.9% | 90.3% | 92% | 111% | 97.6% | 124% | 88% | 92.5% |
| Cc1cc(Nc2cc(N3CCN(C)CC3)nc(/C=C/c3ccccc3)n2)n[nH]1 + Nc1nc(F)nc2c1ncn2[C@@H]1O[C@H](CO)[C@@H](O)[C@@H]1O [fludarabine] (first compound 0.04 µM, partner dose 0.2 µM) | 104% | 36.3% | 113% | 91.8% | 87.2% | 10.7% | 15.2% | – | – | 93.6% |
| CC(C)C[C@H](NC(=O)[C@H](Cc1ccccc1)NC(=O)c1cnccn1)B(O)O [Bortezomib] + N#Cc1c(O)c2c(-c3ccc(-c4ccccc4O)cc3)csc2[nH]c1=O [A769662] (first compound 0.001 µM, partner dose 2 µM) | 82.1% | 98.6% | 78.3% | 54% | 90.4% | 104% | 84.8% | 96.3% | 66.5% | 77.5% |
| Cc1cc(Nc2cc(N3CCN(C)CC3)nc(/C=C/c3ccccc3)n2)n[nH]1 + COc1ccc2c(c1)CCC1C2CCC2(C)C(NCCCCCCN3C(=O)C=CC3=O)CCC12 [U73122] (first compound 0.04 µM, partner dose 0.4 µM) | 95% | 89.6% | 68.7% | 65.1% | 95.6% | 94.8% | 105% | 79.8% | 73.3% | 77.8% |
| Cc1cn(-c2cc(NC(=O)c3ccc(C)c(Nc4nccc(-c5cccnc5)n4)c3)cc(C(F)(F)F)c2)cn1 [nilotinib] + C[C@@H]1CCN(C(=O)CC#N)C[C@@H]1N(C)c1ncnc2[nH]ccc12 [CP690550] (first compound 0.2 µM, partner dose 1 µM) | 110% | 97.8% | 83.1% | 84.6% | 97.7% | 91.9% | 56.5% | 115% | 96.3% | 110% |
| Cc1cc(Nc2cc(N3CCN(C)CC3)nc(/C=C/c3ccccc3)n2)n[nH]1 + COc1cc2c(Oc3ccc4[nH]c(C)cc4c3F)ncnc2cc1OCCCN1CCCC1 [cediranib] (first compound 0.04 µM, partner dose 0.4 µM) | 97.1% | 99.4% | 97.6% | 89.5% | 74.6% | 98.8% | 99.6% | 113% | 87.9% | 78% |
| CC(C)C[C@H](NC(=O)[C@H](Cc1ccccc1)NC(=O)c1cnccn1)B(O)O [Bortezomib] + CC(C)CCN1c2nc(Nc3cc(F)c(O)c(F)c3)ncc2N(C)C(=O)C1C [BID1870] (first compound 0.001 µM, partner dose 0.2 µM) | 97.2% | 85.8% | 84.7% | 52.8% | 77.1% | 99.2% | 72% | 94.7% | 86% | 62.7% |
